The values that follow come from PubChem BioAssay (NCI).

Each structure is given as a SMILES string.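 How tested: cells in 96-well plates exposed to compound for 48 hours at five concentrations. Abbreviation: GI50, concentration required for 50% inhibition of growth. TGI marks complete inhibition of growth.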 Activity calls are given as the source filed them.

One assay relates to CCRF-CEM leukemia. Put plainly: inhibition of tumour cell growth, NCI panel, 48 h.
Another assay has as its system SR leukemia. Description: inhibition of tumour cell growth, NCI panel, 48 h.

Turning to `CCOC(=O)c1ccc(N/N=C/c2cn(-c3ccc(S(N)(=O)=O)cc3)nc2-c2ccc(S(C)(=O)=O)cc2)cc1`, in the assay with CCRF-CEM leukemia, the GI50 entry was “inactive” and the TGI was more than 100 µM. Moreover, in the assay with SR leukemia, the GI50 entry is “inactive” and the TGI was more than 100 µM.
